The full ranking holds about 18,000 sequences; the median of “TetR repression strength (sort-seq, GFP reporter)” is about 0.23, and the highest 2% start at about 0.68. The list shows a part of the results.

Chain of UniProt P04483 (P04483 whole entry): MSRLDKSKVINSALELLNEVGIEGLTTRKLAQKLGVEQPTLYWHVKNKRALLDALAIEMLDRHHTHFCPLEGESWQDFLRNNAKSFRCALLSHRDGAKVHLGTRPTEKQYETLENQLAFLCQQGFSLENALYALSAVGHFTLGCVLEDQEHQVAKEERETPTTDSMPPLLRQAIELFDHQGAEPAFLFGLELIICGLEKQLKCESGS

The assay has as its target TetR (class B, Tn10) (UniProt P04483). In words: TetR repression strength (sort-seq, GFP reporter) (relative to tetO2 = 1); higher = stronger repression. To be noted: E. coli. A digest of the protocol:
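E. coli SIG10-MAX carried a low-copy plasmid library with eight randomized operator positions between a constitutive promoter and sfGFP, with TetR constitutively expressed. Cells grew 5 h at 37 °C in LB with 50 µg/mL chloramphenicol, then 10^6 cells were FACS-sorted into 13 fluorescence bins, each Illumina-sequenced. Repression strength is the top bin index plus one minus the read-weighted mean bin, divided by the wild-type operator value. Three independent transformations; variants with ≥30 reads in all replicates and CV ≤0.5 were averaged.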
TCCCGAATAGTGTCGGAGA: the TetR repression strength was determined as 0.173.

TCCCGTAGAGTCCTCGAGA displayed a TetR repression strength of 0.357.

Sequence TCCCGGGAAGTCGATGAGA came in with a TetR repression strength of 0.12.

TCCCGAAGAGTGTGAGAGA returned a TetR repression strength of 0.18.

With TCCCCACTAGTTTGAGAGA, the TetR repression strength was 0.232.

Consider TCCCACGCAGTTTTGGAGA, for which the TetR repression strength was 0.104.

TCCCGGCAAGTCATGGAGA: the TetR repression strength was 0.23.

The sequence TCCCGTGCAGTACGTGAGA registered a TetR repression strength of 0.255.

Consider TCCCCCCCAGTTACAGAGA, for which the TetR repression strength came to 0.398.

As for TCCCTGAGAGTGTGGGAGA, the TetR repression strength turned out to be 0.158.

Regarding TCCCTTATAGTTCCCGAGA, the TetR repression strength is 0.41.

In turn, TCCCATGCAGTAGCTGAGA registered a TetR repression strength of 0.135.

Sequence TCCCGATCAGTTGAAGAGA came in with a TetR repression strength of 0.18.

Sequence TCCCTAAGAGTCGGTGAGA came in with a TetR repression strength of 0.286.

For the sequence TCCCTCAAAGTCCCGGAGA, the TetR repression strength is 0.367.

TCCCGATTAGTGCTGGAGA gave a TetR repression strength of 0.223.

TCCCCCGGAGTAAATGAGA registered a TetR repression strength of 0.265.

TCCCTTATAGTTGGCGAGA displayed a TetR repression strength of 0.143.

TCCCGAATAGTATTAGAGA: the TetR repression strength came out at 0.173.

In turn, TCCCGGAGAGTGTGCGAGA came in with a TetR repression strength of 0.122.

Sequence TCCCTGGTAGTCGAAGAGA came in with a TetR repression strength of 0.187.

As for TCCCTTAAAGTCTACGAGA, the TetR repression strength turned out to be 0.771.

Take TCCCACGGAGTCCGAGAGA: the TetR repression strength stood at 0.139.

TCCCTTGCAGTGGGAGAGA displayed a TetR repression strength of 0.33.

TCCCATGAAGTGATTGAGA registered a TetR repression strength of 0.192.

On to TCCCACAAAGTGGGGGAGA, for which the TetR repression strength was determined as 0.131.

For TCCCTGTGAGTGCAGGAGA, the TetR repression strength came to 0.264.

As to TCCCTCGGAGTCGGTGAGA, the TetR repression strength was 0.164.

As for TCCCGGCTAGTGAGAGAGA, the TetR repression strength is 0.591.

As for TCCCGCACAGTTCCAGAGA, the TetR repression strength was found to be 0.358.

Consider TCCCTTTGAGTCTATGAGA, for which the TetR repression strength amounted to 0.804.

On to TCCCCGCTAGTGGCCGAGA, for which the TetR repression strength was 0.547.

The sequence TCCCTGCCAGTTTGGGAGA registered a TetR repression strength of 0.218.

Take TCCCAAGCAGTGGGTGAGA: the TetR repression strength came out at 0.184.

Regarding TCCCTCGTAGTTCGCGAGA, the TetR repression strength amounted to 0.168.

TCCCCGCGAGTGGTTGAGA had a TetR repression strength of 0.173.

The sequence TCCCAATAAGTTCGCGAGA had a TetR repression strength of 0.138.

TCCCTGTTAGTTGTGGAGA showed a TetR repression strength of 0.264.

Consider TCCCAATTAGTTCAGGAGA, for which the TetR repression strength was 0.155.

For TCCCGACGAGTGCCAGAGA, the TetR repression strength is 0.21.

The sequence TCCCTGTCAGTGTGCGAGA returned a TetR repression strength of 0.333.

Turning to TCCCGGGCAGTTCAAGAGA, the TetR repression strength was 0.417.

In turn, TCCCCTATAGTGGAGGAGA registered a TetR repression strength of 0.0642.

TCCCCCGCAGTCACTGAGA yielded a TetR repression strength of 0.543.

Sequence TCCCTCGAAGTAGGTGAGA yielded a TetR repression strength of 0.144.

TCCCCTGCAGTCCTCGAGA gave a TetR repression strength of 0.311.

TCCCATGGAGTATTGGAGA yielded a TetR repression strength of 0.229.

The sequence TCCCAGTAAGTTGTAGAGA had a TetR repression strength of 0.455.

As to TCCCGCTCAGTGGTCGAGA, the TetR repression strength amounted to 0.297.

TCCCAGACAGTTGCGGAGA displayed a TetR repression strength of 0.159.

The sequence TCCCGGTGAGTGTGAGAGA registered a TetR repression strength of 0.148.

TCCCGGACAGTTTGAGAGA showed a TetR repression strength of 0.419.

Turning to TCCCCACTAGTGGCGGAGA, the TetR repression strength was determined as 0.514.

Sequence TCCCTCCTAGTTGAAGAGA showed a TetR repression strength of 0.185.

TCCCCGCTAGTGAGAGAGA registered a TetR repression strength of 0.247.

Regarding TCCCTCAAAGTGGTGGAGA, the TetR repression strength worked out at 0.309.

As for TCCCTTTAAGTCGGGGAGA, the TetR repression strength came out at 0.33.

TCCCGTCGAGTATAGGAGA yielded a TetR repression strength of 0.207.

For TCCCGTGAAGTTGGCGAGA, the TetR repression strength worked out at 0.105.

Turning to TCCCGCGCAGTGGTAGAGA, the TetR repression strength is 0.143.

TCCCACTTAGTGTCAGAGA came in with a TetR repression strength of 0.2.

TCCCCGAGAGTACGGGAGA showed a TetR repression strength of 0.343.

In the case of TCCCATTTAGTCGGAGAGA, the TetR repression strength stood at 0.231.

For TCCCGATCAGTGGCCGAGA, the TetR repression strength amounted to 0.565.

In turn, TCCCCGCCAGTTAATGAGA showed a TetR repression strength of 0.303.

For the sequence TCCCGTTTAGTGGGGGAGA, the TetR repression strength was determined as 0.204.

TCCCGCCGAGTTTGTGAGA had a TetR repression strength of 0.115.

For TCCCGGGGAGTGTTTGAGA, the TetR repression strength worked out at 0.62.

The sequence TCCCGGAAAGTCGCCGAGA had a TetR repression strength of 0.0987.

On to TCCCGCGCAGTCAGTGAGA, for which the TetR repression strength is 0.415.

On to TCCCCGCGAGTGTGAGAGA, for which the TetR repression strength was found to be 0.259.

The sequence TCCCTTAGAGTTTTAGAGA gave a TetR repression strength of 0.114.

For TCCCTAGAAGTAGACGAGA, the TetR repression strength came to 0.517.

The sequence TCCCAGTCAGTGTGGGAGA came in with a TetR repression strength of 0.271.

Consider TCCCAGAGAGTGTAGGAGA, for which the TetR repression strength turned out to be 0.0985.

TCCCCTTAAGTCCCTGAGA showed a TetR repression strength of 0.266.

In turn, TCCCTCTAAGTGGGCGAGA showed a TetR repression strength of 0.24.

In turn, TCCCTACAAGTGACCGAGA gave a TetR repression strength of 0.322.

Consider TCCCAACCAGTAGACGAGA, for which the TetR repression strength turned out to be 0.263.

In the case of TCCCAAGGAGTGTCAGAGA, the TetR repression strength is 0.165.

Consider TCCCTTTTAGTAATTGAGA, for which the TetR repression strength turned out to be 0.323.

On to TCCCGAATAGTGGGGGAGA, for which the TetR repression strength came to 0.176.

On to TCCCCACGAGTGGGCGAGA, for which the TetR repression strength was determined as 0.207.

TCCCCTGCAGTCTCGGAGA came in with a TetR repression strength of 0.277.

In turn, TCCCAAACAGTCTAAGAGA yielded a TetR repression strength of 0.268.

The sequence TCCCTTGTAGTATATGAGA showed a TetR repression strength of 0.371.

As for TCCCTTGCAGTTCGGGAGA, the TetR repression strength worked out at 0.21.

TCCCAGCGAGTATGTGAGA yielded a TetR repression strength of 0.127.

In turn, TCCCGTGAAGTGTCAGAGA yielded a TetR repression strength of 0.186.

Sequence TCCCTTGAAGTACGTGAGA gave a TetR repression strength of 0.0446.

TCCCGATGAGTCAGTGAGA registered a TetR repression strength of 0.38.

As for TCCCACTAAGTGGGAGAGA, the TetR repression strength was found to be 0.231.

TCCCATTAAGTTGGTGAGA came in with a TetR repression strength of 0.0988.

With TCCCTAGTAGTGATTGAGA, the TetR repression strength was determined as 0.384.

The sequence TCCCGTCCAGTGGGCGAGA yielded a TetR repression strength of 0.398.

TCCCGCTAAGTGTGCGAGA had a TetR repression strength of 0.158.

TCCCGACCAGTGTGCGAGA: the TetR repression strength amounted to 0.163.

TCCCAATCAGTGTATGAGA: the TetR repression strength is 0.259.

For the sequence TCCCAGAGAGTTAGCGAGA, the TetR repression strength came to 0.557.

In turn, TCCCGCAGAGTCCGCGAGA showed a TetR repression strength of 0.224.

For the sequence TCCCTTAAAGTGATCGAGA, the TetR repression strength stood at 0.207.

In the case of TCCCAAGCAGTCGGGGAGA, the TetR repression strength stood at 0.

The record behind these values is a collection of fitness landscapes (doi:10.1038/s41467-024-54723-y).
